# “And” between values parts separate entries of the source, which are not always exact repeats. Identical values can stand only once. Out of some 150,000 compounds screened, about 540 (0.36%) showed an effect of 50% or more. The list shows a part of the results.
# Tested on: Plasmodium falciparum
# Assay: Primary screen in NF54 nanoGlo assay, in single point, at 2uM, 72h; a lower Z score goes with more inhibition
# Format: functional, Erythrocyte
# Details: timepoint 72 hour
Compound,% Inhibition [%],Z score,% Inhibition (2 µM)
O=C(Cn1c(=O)n(-c2cc(F)cc(F)c2)c(=O)c2sccc21)Nc1ccc(F)cc1F,-5,0.86,
CN(CC(N)=O)C(=O)CCc1cc(Cl)ccc1Br,-15,1.89,
CC(C(=O)N[C@@H](C#N)C(C)C)c1ccccc1 (stereo partly specified),-11,1.78,
O[C@@H]1C[C@H](O)C12CCN(c1ncc(Cl)cc1C(F)(F)F)CC2,-7,1.16,
CC(C)(C)c1csc([C@@H]2CN(c3ccc4nncn4n3)CCO2)n1,4,-0.64,
CN(Cc1cc[nH]n1)S(=O)(=O)N(C)C1CCCCC1,-11,1.62,
Cc1cc(-n2c(C)cc(C(=O)Nc3cccc(S(=O)(=O)N4CCCCC4)c3)c2C)no1,-15,2.07,
CCCNC(=O)CN1CCN(c2cc(C(=O)O)c3cc(NS(=O)(=O)c4cc(C)cc(C)c4)ccc3n2)CC1,-10,1.83,
N#CC1(CCn2nc(CO)ccc2=O)CCCCC1,-9,1.02,
CC(=O)NC(C)(C)CN(C)Cc1ccccc1,-9,1.2,
CCN1CCN(Cc2nc(C)cc(-c3ccccc3)n2)C(=O)C1=O,-15,1.85,
Cc1cc(C)cc(NC(=O)Cn2nc3c4cc(-c5ccc(F)cc5)nn4ccn3c2=O)c1,0,-0.03,
COc1ccc(CCc2nc(-c3ccc(N4CCCCC4)cc3)no2)cc1,-4,0.48,
CC1CCN(Cc2nnnn2CC(=O)N2CCc3[nH]nc(C(C)C)c3C2)CC1,-10,1.27,
O=C(Nc1ccc(N2CCOCC2)cc1)c1cccc(S(=O)(=O)N2CCCCC2)c1,3,-0.33,
O=S(=O)(NC1CCCCC1)c1ccc(Cl)c(S(=O)(=O)NC2CCCCC2)c1,39,-5.08,
CC(C)NC(=O)CN1CCCCc2c(Cl)cccc21,-4,0.42,
C[C@@H](Cc1ccccc1F)C(=O)N1CCC(Nc2cccnc2)CC1,5,-0.96,
CC(C)C(=O)N[C@H]1CC12CCN(S(=O)(=O)c1ccc(F)cc1F)CC2,-6,0.68,
Cn1ccnc1CCN1C(=O)CN(CCc2ccccc2)C1=O,-5,0.65,
Cn1ccnc1[C@H]1CCN(C(=O)N[C@H]2CC[C@H](O)CC2)C1,5,-0.52,
Cc1cc(C(F)(F)F)ccc1S(=O)(=O)Nc1ncn(Cc2ccncc2)n1,-7,1.14,

Compound,% Inhibition [%],Z score,% Inhibition (2 µM)
COc1cccc(CN2CCC[C@@]3(CCN(C(=O)c4cc(C)n(C)n4)C3)C2)c1OC,-9,1.17,
Cc1ccc(N2C(=O)c3ccccc3[C@H]2Nc2nc(C)cs2)nc1,33,-4.4,
CC1(COc2cccc3ncoc23)COC1,-22,4.37,
COCCCN1C(=O)CC(CC(=O)N2CCCC(C(=O)CC(C)C)C2)(c2ccccc2OC)C1=O (stereo unspecified),-9,1.13,
CC(=O)N1CC[C@H](NC(=O)Nc2nc3c(s2)CCCC3)C1,-4,0.47,
COc1ccc(NC(=O)Cn2cncc(C(=O)NC3CC3)c2=O)cc1,-7,1.22,
O=C(Cc1ccc(OC(F)F)cc1)NCc1ccc(C(=O)N2CCOCC2)cc1,-14,1.9,
OCc1ccncc1NCc1csc(C(F)(F)F)n1,-17,3.14,
CN1c2ccccc2C(=O)N[C@@H]1c1ccc2ccccc2c1,20,-2.31,
CCc1nnc(-c2cc(S(=O)(=O)NCc3ccc4c(c3)OCO4)c[nH]2)o1,-7,1.43,
Cn1ccc(NS(=O)(=O)c2cccc3c2N=S=N3)n1,-1,0.06,
CC1(C)Cc2cccc(OCc3ccc(C(=O)N4CCN(c5ccccc5Cl)CC4)cc3)c2O1,0,0.04,
C[C@H]1CCc2sc(C(=O)N3CCc4n[nH]cc4C3)cc2C1,-14,2.79,
CO[C@@]1(C)C[C@@H](O)C12CCN(C(=O)CN(C)c1ccccc1)CC2,-31,2.71,
Cc1cnc(NC(=O)c2nc(C)oc2-c2ccccc2)[nH]1,-10,1.11,
O=C(Nc1ccc(OCc2ccccc2)cc1)NC1CCCCC1,-10,1.19,
CN(C)C(=O)N(C)[C@H]1CCN(C(=O)c2cc(C#N)ccn2)C1,-8,0.9,
COC1(C)CC(NC(=O)Nc2nccs2)C1(C)C (stereo unspecified),-4,0.37,
COCC1(C(=O)NCc2cscn2)CCC1,-6,1.02,
CCOC(=O)n1c2ccccc2c2ccccc21,-3,0.31,
CCN1CCc2c(c(CN(CC(C)C)C(=O)NC(C)(C)C)nn2-c2ccccc2OC)C1,-8,1.07,
O=C1CCOc2cc(-c3cc[nH]n3)ccc21,3,-0.47,

Compound,% Inhibition [%],Z score,% Inhibition (2 µM)
N#C[C@@H]1COCCN1C(=O)c1ccc2c(c1)CCCC2,4,-0.74,
O[C@@H]1CCN(c2ncc(Cl)cc2F)C1,-7,1,
CCn1c(C)cc(CN(C)c2ccnc(N(C)C)n2)c1C,-7,0.93,
CC(C)(C)c1ccc(C(=O)N/C(=N/c2ccccc2)NCc2cccnc2)cc1,-7,0.61,
COCc1nc(O)cc(N2CC[C@H](c3cnn(C)c3)C2)n1,-6,1.16,
Cn1ncc2cc(-c3ccc(C(=O)NCC(=O)N4CCCC4)cc3)ccc21,-2,0.32,
COc1cccc(CNS(=O)(=O)c2cc(-c3nc(C(C)C)cs3)sc2C)c1,-12,1.52,
O=C1C[C@H](N2CCN(Cc3ccccc3)CC2)C(=O)N1c1ccc2c(c1)OCCO2,,,-16% and 2%
Cc1cc(C(=O)N[C@H]2CC[C@H]2NC2CCCCCC2)nc2[nH][nH]c(=O)c12,-18,2.93,
Cc1cc(NCc2c(C)noc2C)nc(C2CC2)n1,-7,1.22,
CN(C)CCN1CC2(CCC1=O)CCN(c1cc(C3CC3)ncn1)CC2,-11,1.46,
Cc1noc(C)c1CC(=O)N1CCOC[C@@H](CO)C1,-22,2,
Cc1noc(C)c1N(C)C(=O)c1csc(Cc2cccc(F)c2)n1,6,-0.76,
O=C(NCCN1CCCC1)[C@@H]1CCCCc2nnc(-c3ccccc3)n21,-11,1.69,
O=C(OC1CCCC1)c1ccc(NCc2nnc(C3CC3)o2)cc1,-17,2.3,
O=C(C1Cc2ccccc2CO1)N1CCC(Oc2cnccn2)C1 (stereo unspecified),-21,2.35,
Cc1ccc2c(c1)cc(C(=O)N1[C@H]3CCNC[C@@H]1CC3)n2C,6,-0.8,
COc1ccccc1NC(=O)[C@H]1CCCN(S(=O)(=O)Cc2cccc(Cl)c2)C1,9,-1.17,
c1ccc2[nH]c(NC3CCCC3)nc2c1,-3,0.23,
COc1ccc(NC(=O)c2ccsc2)cn1,-10,1.62,
Cn1nc2n(c1=O)C(=O)N(c1cccc(F)c1)C2,-6,0.76,
CN(Cc1cc[nH]n1)c1cc(N2CCOCC2)ncn1,13,-1.85,

Compound,% Inhibition [%],Z score,% Inhibition (2 µM)
Cc1ncn(C)c1C(=O)N(C)Cc1cnn(C(C)C)c1,1,-0.09,
O=C(NC1CCCCC1)c1cncc(-c2ccccc2F)c1,-18,2.05,
O=C1COc2ccc(S(=O)(=O)N3CCN(C(=O)Cc4ccc(F)cc4)CC3)cc2N1,2,-0.24,
CCn1c(=O)c2sccc2n(CC(=O)N(C)C2CCCCC2)c1=O,7,-0.96,
CN(CC(=O)NC(c1ccccc1)c1ccccc1)S(=O)(=O)c1cccc(Cl)c1,3,-0.52,
CN(C(=O)[C@@H]1CCN(c2ccccc2)C1=O)C1CCOCC1,1,-0.1,
CC1CC(Nc2ccc(S(C)(=O)=O)cc2)C(=O)N1c1ccccc1 (stereo unspecified),-3,0.37,
CCCN1CCC(NC(=O)OCC)CC1,-16,1.49,
C#CCN1CCC(C(=O)N(CCC#N)CC(C)(C)C)CC1,-8,1.61,
Cc1c(C(=O)NCCS(=O)(=O)N(C)C)nnn1CC1CCCC1,-10,1.9,
COc1ccc(OC)c(-c2cc(C(=O)O)c(N)c3cccnc23)c1,-6,1.04,
CC(C)c1ccc(C2CC2C(=O)NS(=O)(=O)c2cccnc2)cc1 (stereo unspecified),-6,0.97,
CN(CCN(C)C1CCCC1)c1nccc(N)n1,-9,1.1,
COc1ccc(-c2c(N)nnc3c(-c4ccccc4)cnn23)cc1,-15,2.82,
CCCn1nnnc1CNc1ccc(C)c(NC(C)=O)c1C,-10,1.43,
O=C(CCc1ccc2c(c1)OCO2)N1CCC[C@H]1c1ccc[nH]1,-10,1.29,
Cc1cc(C(F)(F)F)n(C[C@@H](C)CNS(=O)(=O)N(C)C)n1,-2,0.16,
Cc1nc(C(=O)N(C)CCCOc2ccc(F)cc2)c2n1CCCC2,-9,0.81,
O=S(=O)(c1ccc(Cl)cc1)n1nc(-c2ccccc2)nc1NCc1ccco1,-5,0.62,
CC(C)(C)C(=O)NC1CC2CC1C1CC21 (stereo unspecified),7,-0.99,

# From ChEMBL document CHEMBL4888484, “Replenishing the malaria drug discovery pipeline: Screening and hit evaluation of the MMV Hit Generation Library 1 (HGL1) against asexual blood stage Plasmodium falciparum ,using a nano luciferase reporter read-out” (2022)
